Laboratory results published in the antibiotic and cytotoxicity screens of Wong et al. (2023).
This is one part of the list.

Key:
HSkMC = human skeletal muscle cells; assay: cytotoxicity call (relative viability < 0.9); details: 10 µM
HepG2 = assay: cytotoxicity call (relative viability < 0.9); details: 10 µM
S. aureus RN4220 = assay: growth inhibition call (relative growth <= 0.2); details: 50 µM

SMILES | cytotoxicity call (HSkMC) | cytotoxicity call (HepG2) | growth inhibition call (S. aureus RN4220)
C[C@@H]1CCCCO[C@@H](CN(C)C(=O)Nc2ccccc2)[C@@H](C)CN([C@@H](C)CO)C(=O)c2cc(NS(=O)(=O)c3ccccc3)ccc2O1 | inactive | inactive | inactive
COc1ccc([Si](C)(C)[C@H]2[C@H](CCOC(=O)NCCCCCC(=O)NO)O[C@]3(C(=O)N(Cc4cccc(I)c4)c4ccccc43)[C@@H]2C)cc1 | inactive | inactive | inactive
CN1CCN(C(=O)C[C@H]2C[C@@H]3c4cc(NC(=O)c5ccc6c(c5)OCO6)ccc4O[C@@H]3[C@H](CO)O2)CC1 | inactive | inactive | inactive
C[C@@H]1CN([C@@H](C)CO)C(=O)c2cc(NS(C)(=O)=O)ccc2O[C@@H]1CN(C)C(=O)Nc1ccc(C(F)(F)F)cc1 | inactive | active | inactive
COCC(=O)N1CC(=O)N2[C@@H](CO)[C@@H](c3ccc(C#Cc4cccnc4)cc3)[C@@H]2C1 | inactive | inactive | inactive
COCC#Cc1cnc2c(c1)C(=O)N([C@@H](C)CO)C[C@@H](C)[C@@H](CN(C)C(C)=O)O2 | inactive | inactive | inactive
O=C(/C=C/c1ccc(O)c(O)c1)O[C@H]1[C@H](O)[C@@H](O)[C@H](OCCc2ccc(O)c(O)c2)O[C@@H]1CO | inactive | inactive | inactive
C[C@H]1CN([C@@H](C)CO)C(=O)c2cccc(NC(=O)C3CC3)c2O[C@H]1CN(C)Cc1ccc(C(=O)O)cc1 | inactive | inactive | inactive
C[C@@H]1CN([C@@H](C)CO)S(=O)(=O)c2ccc(/C=C/c3ccccc3)cc2O[C@@H]1CN(C)C(=O)CN1CCOCC1 | inactive | inactive | inactive
O=C(O)c1cc(-c2ccc(F)cc2F)ccc1O | inactive | inactive | inactive
C[C@H]1CN([C@@H](C)CO)S(=O)(=O)c2ccc(-c3cccc(C#N)c3)cc2O[C@H]1CN(C)C(=O)c1ccncc1 | inactive | inactive | inactive
CN(CC(N)=O)S(=O)(=O)c1ccc(F)cc1 | inactive | inactive | inactive
C[C@H]1CN([C@@H](C)CO)C(=O)c2cc(NC(=O)Cn3cnnn3)ccc2O[C@@H]1CN(C)C(=O)Nc1ccccc1 | inactive | inactive | inactive
C[C@@H]1CN([C@@H](C)CO)C(=O)c2cccc(NS(C)(=O)=O)c2O[C@@H]1CN(C)S(=O)(=O)c1cn(C)cn1 | inactive | inactive | inactive
Cn1c(=O)c2c(ncn2CCCN)n(C)c1=O | inactive | inactive | inactive
C=CC[C@H](CC(=O)NCCO)C(=O)N[C@H](COC(=O)[C@@H](CC=C)CC(=O)OC(C)(C)C)c1ccccc1 | inactive | inactive | inactive
C[C@@H]1CN([C@H](C)CO)C(=O)c2cc(NC(=O)Nc3ccc(C(F)(F)F)cc3)ccc2O[C@@H]1CN(C)Cc1ccc(C(=O)Nc2ccccc2N)cc1 | inactive | active | inactive
C[C@H]1CN([C@@H](C)CO)C(=O)c2c(c3ccccc3n2C)-c2ccccc2CO[C@H]1CN(C)Cc1ccc(-c2ccccc2)cc1 | inactive | inactive | inactive
CCNC(=O)C[C@H]1CC[C@H]2[C@@H](COc3ccc(NS(=O)(=O)c4ccccc4C)cc3C(=O)N2C)O1 | inactive | inactive | inactive
C[C@@H]1CN([C@H](C)CO)C(=O)CCCn2nncc2CO[C@@H]1CN(C)C(=O)Nc1ccnc(N2CCOCC2)c1 | inactive | inactive | inactive

SMILES | cytotoxicity call (HSkMC) | cytotoxicity call (HepG2) | growth inhibition call (S. aureus RN4220)
C[C@H](CO)N1C[C@H](C)[C@@H](CN(C)C(=O)Nc2ccc(C(F)(F)F)cc2)OCCCC[C@H](C)Oc2ccc(NS(C)(=O)=O)cc2C1=O | inactive | inactive | inactive
COc1ccc(NC(=O)N(C)C[C@@H]2OCCCC[C@H](C)Oc3ccc(NS(=O)(=O)c4ccccc4)cc3C(=O)N([C@@H](C)CO)C[C@@H]2C)cc1 | inactive | inactive | inactive
N[C@@H]1CC[C@@H](c2ccc(Cl)c(Cl)c2)c2ccccc21 | active | active | active
C[C@@H]1CN([C@H](C)CO)C(=O)c2cc(NC(=O)Nc3ccc4c(c3)OCO4)ccc2O[C@@H](C)CCCCO[C@H]1CN(C)Cc1ccc(C(=O)O)cc1 | inactive | inactive | inactive
COc1ccc(NC(=O)Nc2ccc3c(c2)CC(=O)N([C@H](C)CO)C[C@@H](C)[C@H](CN(C)CC2CCCCC2)O3)cc1 | inactive | inactive | inactive
COc1ccccc1C#Cc1ccc2c(c1)O[C@@H](CN(C)Cc1cccnc1)[C@@H](C)CN([C@H](C)CO)S2(=O)=O | inactive | inactive | inactive
O=C(NCCN1CCCC1)[C@@H]1[C@@H](CO)[C@@H]2Cn3c(cccc3=O)[C@H]1N2C(=O)NC1CCCC1 | inactive | inactive | inactive
C[C@@H]1CCCCO[C@@H](CN(C)S(=O)(=O)c2cccs2)[C@H](C)CN([C@@H](C)CO)C(=O)c2cc(NC(=O)NC3CCCCC3)ccc2O1 | inactive | inactive | inactive
OCC1OC(Oc2cc(O)cc(C=Cc3ccc(O)cc3)c2)C(O)C(O)C1O (centres undefined) | inactive | inactive | inactive
COc1ccc(CN(C)C[C@@H]2OCCCC[C@H](C)Oc3ccc(NC(=O)NC(C)C)cc3C(=O)N([C@H](C)CO)C[C@H]2C)cc1 | inactive | inactive | inactive
S=C1C=C(N2CCCCC2)C[C@H](c2ccc(Cl)cc2)S1 | inactive | inactive | inactive
C[C@@H]1CN([C@@H](C)CO)C(=O)c2cccc(NC(=O)Nc3ccc(F)cc3)c2O[C@H]1CN(C)S(=O)(=O)c1cn(C)cn1 | inactive | inactive | inactive
C[C@@H]1CCCCO[C@@H](CN(C)C(=O)NC2CCCCC2)[C@H](C)CN([C@H](C)CO)C(=O)c2cc(NS(=O)(=O)c3ccc(F)cc3)ccc2O1 | inactive | inactive | inactive
C[C@@H]1CN([C@H](C)CO)C(=O)c2cccc(NC(=O)c3nc4ccccc4s3)c2O[C@H]1CN(C)S(C)(=O)=O | inactive | inactive | inactive
C[C@@H]1CN([C@H](C)CO)C(=O)Cc2cc(NC(=O)C3CC3)ccc2O[C@H]1CN(C)Cc1ccc(Oc2ccccc2)cc1 | inactive | inactive | inactive
O=C(C[C@@H]1CC[C@@H](NC(=O)Cc2ccccn2)[C@H](CO)O1)NCCc1ccncc1 | inactive | inactive | inactive
C/C=C/c1cccc(-c2nc(C(=O)NCc3ccc(OC)cc3)cc3c2[C@H](CCO)N([S@@](=O)C(C)(C)C)C3)c1 | inactive | inactive | inactive
CCCc1nn(C)c2c(=O)[nH]c(-c3cc(S(=O)(=O)N4CCN(C)CC4)ccc3OCC)nc12.O=C(O)CC(O)(CC(=O)O)C(=O)O | inactive | active | inactive
C[C@H]1CN([C@@H](C)CO)C(=O)CCCn2nncc2CO[C@@H]1CN(C)Cc1ccc2c(c1)OCCN2C | inactive | inactive | inactive
CC(C)NC(=O)N(C)C[C@H]1Oc2ccc(NS(=O)(=O)c3cccs3)cc2CC(=O)N([C@@H](C)CO)C[C@H]1C | inactive | inactive | inactive

SMILES | cytotoxicity call (HSkMC) | cytotoxicity call (HepG2) | growth inhibition call (S. aureus RN4220)
C[C@H]1CN([C@@H](C)CO)C(=O)Cc2cc(NC(=O)Nc3ccc(F)cc3)ccc2O[C@@H]1CN(C)Cc1ccc(C(F)(F)F)cc1 | inactive | inactive | inactive
CO[C@H]1CN(C)C(=O)c2ccc(NC(=O)NC(C)C)cc2OC[C@@H](C)N(Cc2ccc(-c3ccccn3)cc2)C[C@@H]1C | inactive | inactive | inactive
C[C@@H]1CCCCO[C@H](CN(C)Cc2ccc(C(F)(F)F)cc2)[C@H](C)CN([C@@H](C)CO)C(=O)c2cc(NC(=O)NC3CCCCC3)ccc2O1 | active | active | inactive
CNC(=O)c1ccccc1N | inactive | inactive | inactive
O=C(C1=C[C@H](c2ccsc2)C[C@H](OCCCCO)O1)N1CCN(Cc2ccc3c(c2)OCO3)CC1 | inactive | inactive | inactive
Cc1noc(C)c1NC(=O)Nc1ccc2c(c1)C(=O)N([C@@H](C)CO)C[C@H](C)[C@H](CN(C)Cc1ccc(-c3ccccc3)cc1)O2 | inactive | inactive | inactive
C[C@H](CO)N1C[C@H](C)[C@@H](CN(C)Cc2ccccc2)OCCCC[C@H](C)Oc2ccc(NC(=O)CCC(F)(F)F)cc2C1=O | inactive | inactive | inactive
C[C@H]1CN([C@@H](C)CO)C(=O)c2cc(C#CCN(C)C)cnc2O[C@@H]1CN(C)C(=O)Nc1ccccc1F | inactive | inactive | inactive
C=C1CC[C@@H]2C(C)(C)CCC[C@@]2(C)[C@@H]1CC/C(C)=C/C(=O)OC | inactive | inactive | inactive
Cc1noc(C)c1NC(=O)Nc1ccc2c(c1)C(=O)N([C@@H](C)CO)C[C@H](C)[C@H](CN(C)Cc1ccc(C(F)(F)F)cc1)OCCCC[C@H](C)O2 | inactive | inactive | inactive
CS(=O)(=O)CC(=O)N1C[C@H]2COC[C@@]2(COc2cccnc2)C1 | inactive | inactive | inactive
COCCN1C[C@@H]2CN(C(=O)[C@H]3CCCO3)C[C@H]2C1=O | inactive | inactive | inactive
C[C@H](CO)N1C[C@H](C)[C@@H](CN(C)S(=O)(=O)c2cccc(F)c2)Oc2cc(C#CCN(C)C)ccc2S1(=O)=O | inactive | inactive | inactive
COc1ccc(S(=O)(=O)N(C)C[C@@H]2Oc3ccc(NC(=O)Cc4ccccc4)cc3C(=O)N([C@H](C)CO)C[C@@H]2C)cc1 | inactive | inactive | inactive
C[C@@H]1CN([C@H](C)CO)C(=O)Cc2cc(NC(=O)Nc3ccc(C(F)(F)F)cc3)ccc2O[C@@H]1CN(C)Cc1ccc(C(F)(F)F)cc1 | active | active | inactive
COc1ccc(S(=O)(=O)Nc2ccc3c(c2)C(=O)N([C@H](C)CO)C[C@@H](C)[C@@H](CN(C)Cc2ccc(C(=O)O)cc2)OCCCC[C@H](C)O3)cc1 | inactive | inactive | inactive
C[C@@H]1CN([C@@H](C)CO)C(=O)c2cc(NS(=O)(=O)c3cn(C)cn3)ccc2O[C@H]1CN(C)Cc1ccc(C(=O)O)cc1 | inactive | inactive | inactive
N[C@H]1CCCN(c2ncccn2)C1 | inactive | inactive | inactive
